# Assay results published in article PMC9911399, “Two distinct binding modes provide the RNA-binding protein RbFox with extraordinary sequence specificity”.
# Changes are numbered by the printed parent chain; changes in the protein carry UniProt numbers. This is one part of the list.
# T1: RBFOX1 RRM (Homo sapiens, UniProt Q9NWB1 109-208)
# T1 sequence: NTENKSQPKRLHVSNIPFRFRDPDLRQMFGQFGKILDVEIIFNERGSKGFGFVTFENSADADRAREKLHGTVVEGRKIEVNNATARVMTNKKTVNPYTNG
# B1: UCAGUAC (DNA:RNA)
# RNA: GGGAGACCGGAAUUCAGAUUGUCCUCAGUACUUAAAUCCCGUCGUAGCCACCA
# DNA 1: CAATCTGAATTCCGGTCTCCC
# DNA 2: TGGTGGCTACGACGGGATT
# B2: UGUUAUC (DNA:RNA)
# RNA: B1 RNA with C26G, A27U, G28U, U29A, A30U
# DNA 1: CAATCTGAATTCCGGTCTCCC
# DNA 2: TGGTGGCTACGACGGGATT
# B3: GUCCCCU (DNA:RNA)
# RNA: GGGAGACCGGAAUUCAGAUUGUCCGUCCCCUUUAAAUCCCGUCGUAGCCACCA
# DNA 1: CAATCTGAATTCCGGTCTCCC
# DNA 2: TGGTGGCTACGACGGGATT
# B4: GCUAUAC (DNA:RNA)
# RNA: B1 RNA with U25G, A27U, G28A
# DNA 1: CAATCTGAATTCCGGTCTCCC
# DNA 2: TGGTGGCTACGACGGGATT
# B5: ACUGGGU (DNA:RNA)
# RNA: B1 RNA with U25A, A27U, U29G, A30G, C31U
# DNA 1: CAATCTGAATTCCGGTCTCCC
# DNA 2: TGGTGGCTACGACGGGATT
# B6: UUUCCUC (DNA:RNA)
# RNA: B3 RNA with G25U, C27U, C30U, U31C
# DNA 1: CAATCTGAATTCCGGTCTCCC
# DNA 2: TGGTGGCTACGACGGGATT
# B7: CGGAGUC (DNA:RNA)
# RNA: B1 RNA with U25C, C26G, A27G, G28A, U29G, A30U
# DNA 1: CAATCTGAATTCCGGTCTCCC
# DNA 2: TGGTGGCTACGACGGGATT
# B8: CCUGAAC (DNA:RNA)
# RNA: B1 RNA with U25C, A27U, U29A
# DNA 1: CAATCTGAATTCCGGTCTCCC
# DNA 2: TGGTGGCTACGACGGGATT
# B9: ACCCCAG (DNA:RNA)
# RNA: B3 RNA with G25A, U26C, C30A, U31G
# DNA 1: CAATCTGAATTCCGGTCTCCC
# DNA 2: TGGTGGCTACGACGGGATT
# B10: GUAAAAG (DNA:RNA)
# RNA: B3 RNA with C27A, C28A, C29A, C30A, U31G
# DNA 1: CAATCTGAATTCCGGTCTCCC
# DNA 2: TGGTGGCTACGACGGGATT
# B11: GCCGUAG (DNA:RNA)
# RNA: B1 RNA with U25G, A27C, C31G
# DNA 1: CAATCTGAATTCCGGTCTCCC
# DNA 2: TGGTGGCTACGACGGGATT
# B12: UGCUAUA (DNA:RNA)
# RNA: B3 RNA with G25U, U26G, C28U, C29A, C30U, U31A
# DNA 1: CAATCTGAATTCCGGTCTCCC
# DNA 2: TGGTGGCTACGACGGGATT
# B13: AACAGUU (DNA:RNA)
# RNA: B3 RNA with G25A, U26A, C28A, C29G, C30U
# DNA 1: CAATCTGAATTCCGGTCTCCC
# DNA 2: TGGTGGCTACGACGGGATT
# B14: CGGUCGA (DNA:RNA)
# RNA: B3 RNA with G25C, U26G, C27G, C28U, C30G, U31A
# DNA 1: CAATCTGAATTCCGGTCTCCC
# DNA 2: TGGTGGCTACGACGGGATT
# B15: UUCUAUC (DNA:RNA)
# RNA: B3 RNA with G25U, C28U, C29A, C30U, U31C
# DNA 1: CAATCTGAATTCCGGTCTCCC
# DNA 2: TGGTGGCTACGACGGGATT
# B16: CUCUAGA (DNA:RNA)
# RNA: B3 RNA with G25C, C28U, C29A, C30G, U31A
# DNA 1: CAATCTGAATTCCGGTCTCCC
# DNA 2: TGGTGGCTACGACGGGATT
# B17: GUGUCAC (DNA:RNA)
# RNA: B3 RNA with C27G, C28U, C30A, U31C
# DNA 1: CAATCTGAATTCCGGTCTCCC
# DNA 2: TGGTGGCTACGACGGGATT
# B18: GUCUACC (DNA:RNA)
# RNA: B3 RNA with C28U, C29A, U31C
# DNA 1: CAATCTGAATTCCGGTCTCCC
# DNA 2: TGGTGGCTACGACGGGATT
# B19: AAAAGCC (DNA:RNA)
# RNA: B1 RNA with U25A, C26A, G28A, U29G, A30C
# DNA 1: CAATCTGAATTCCGGTCTCCC
# DNA 2: TGGTGGCTACGACGGGATT
# B20: CCAAGUU (DNA:RNA)
# RNA: B1 RNA with U25C, G28A, U29G, A30U, C31U
# DNA 1: CAATCTGAATTCCGGTCTCCC
# DNA 2: TGGTGGCTACGACGGGATT
# Biological target: T1, RBFOX1 RRM
# Assay: EMSA; HiTS-Eq, 1 nM pool, 10 min; buffer printed only for the single-RNA assays: 10 mM Tris pH 7.5, 150 mM NaCl, 3.4 mM EDTA, 0.001% NP-40, 30 C
# Details: tags: His6 N-terminal (pET28a); label: 5' 32P
# Outline: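 Relative association constants, normalised to the cognate motif, were derived by comparing read counts of each RNA species with those of the control reaction. The RNA sequenced was the free fraction, separated by 8% native PAGE after a 10 min equilibration in 50 µL of 1 nM 5′-radiolabelled RNA (7 randomized nucleotides) with increasing concentrations of purified wild-type or mutant RbFox RRM.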
row,Binder,binding signal
1,B1,0.00471 KA relative to UGCAUGU
2,B2,0.0131 KA relative to UGCAUGU
3,B3,0.00478 KA relative to UGCAUGU
4,B4,0.00509 KA relative to UGCAUGU
5,B5,0.0133 KA relative to UGCAUGU
6,B6,0.0117 KA relative to UGCAUGU
7,B7,0.0303 KA relative to UGCAUGU
8,B8,0.011 KA relative to UGCAUGU
9,B9,0.00285 KA relative to UGCAUGU
10,B10,0.00513 KA relative to UGCAUGU
11,B11,0.0118 KA relative to UGCAUGU
12,B12,0.0144 KA relative to UGCAUGU
13,B13,0.0024 KA relative to UGCAUGU
14,B14,0.00831 KA relative to UGCAUGU
15,B15,0.00501 KA relative to UGCAUGU
16,B16,0.00742 KA relative to UGCAUGU
17,B17,0.0104 KA relative to UGCAUGU
18,B18,0.0113 KA relative to UGCAUGU
19,B19,0.00303 KA relative to UGCAUGU
20,B20,0.00543 KA relative to UGCAUGU
